Results published in article PMC4336329 (PLoS ONE, 2015).
Among all 310,000 compounds or so, about 2,200 (0.71%) showed an effect of 50% or more. Effects have a minus sign here. The list shows a part of the results.

Each molecule was assayed against human ether-à-go-go-related gene (hERG) potassium channel (human, UniProt Q12809) (assay: primary screen, population patch clamp on CHO cells stably expressing hERG).
Chain of human ether-à-go-go-related gene (hERG) potassium channel (Q12809 whole entry, looked up): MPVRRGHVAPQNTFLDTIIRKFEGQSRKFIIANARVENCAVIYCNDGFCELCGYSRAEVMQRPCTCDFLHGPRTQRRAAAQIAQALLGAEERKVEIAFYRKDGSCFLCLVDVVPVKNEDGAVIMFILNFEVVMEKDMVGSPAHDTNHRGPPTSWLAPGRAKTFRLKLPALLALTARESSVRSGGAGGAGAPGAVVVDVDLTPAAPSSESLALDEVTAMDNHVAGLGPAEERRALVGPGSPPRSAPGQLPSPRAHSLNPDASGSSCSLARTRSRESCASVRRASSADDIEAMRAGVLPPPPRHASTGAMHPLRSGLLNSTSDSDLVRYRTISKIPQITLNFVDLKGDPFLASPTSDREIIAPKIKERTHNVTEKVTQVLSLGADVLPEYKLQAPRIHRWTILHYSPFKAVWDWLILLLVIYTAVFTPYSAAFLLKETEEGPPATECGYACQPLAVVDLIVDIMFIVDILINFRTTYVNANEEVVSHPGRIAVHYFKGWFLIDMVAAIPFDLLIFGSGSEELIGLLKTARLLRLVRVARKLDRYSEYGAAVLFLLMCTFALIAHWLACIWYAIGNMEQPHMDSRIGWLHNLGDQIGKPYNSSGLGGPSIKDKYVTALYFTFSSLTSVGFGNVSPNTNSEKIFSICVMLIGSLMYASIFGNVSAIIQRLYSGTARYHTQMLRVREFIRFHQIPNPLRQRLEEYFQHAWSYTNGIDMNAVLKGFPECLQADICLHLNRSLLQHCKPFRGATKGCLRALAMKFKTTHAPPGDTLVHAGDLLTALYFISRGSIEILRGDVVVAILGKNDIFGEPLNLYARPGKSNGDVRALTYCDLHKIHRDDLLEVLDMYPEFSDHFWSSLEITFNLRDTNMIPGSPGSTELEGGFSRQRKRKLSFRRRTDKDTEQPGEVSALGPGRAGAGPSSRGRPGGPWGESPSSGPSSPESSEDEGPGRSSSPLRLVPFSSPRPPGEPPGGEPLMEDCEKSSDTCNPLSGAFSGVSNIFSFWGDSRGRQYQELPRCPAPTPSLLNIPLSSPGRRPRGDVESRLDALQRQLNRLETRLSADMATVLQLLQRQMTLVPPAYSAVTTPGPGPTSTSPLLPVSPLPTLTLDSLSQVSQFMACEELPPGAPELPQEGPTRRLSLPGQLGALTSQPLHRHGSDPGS

Compound | hERG current change (%, negative = inhibition) at 1uM [%]
Cn1c(SCC(=O)N2CCOCC2)nnc1-c1ccc(Cl)cc1Cl | 12
CN(C)S(=O)(=O)c1ccc(C(=O)Nc2ccc(OCC(=O)N3CCOCC3)cc2)cc1 | 3.57
Cc1noc(C)c1S(=O)(=O)Nc1ccccc1N1CCOCC1 | 6.86
O=C(NCCNC(=O)c1cc(Cl)ccc1Cl)c1ccccn1 | 14.9
Cc1cc(C)n2nc(CC(=O)NCc3ccccc3Cl)nc2n1 | 9.04
O=C(NCCCN1CCN(c2ccc(F)cc2)CC1)C1CCCN(c2ncnc3c2nc2n3CCCCC2)C1 (centres unmarked) | -31
CCOC(=O)[C@@H]1[C@H]2COc3cc(OC)ccc3[C@@H]2N2C(=O)N(c3cccc(Cl)c3)C(=O)[C@@]12C | 17.1
NC(=O)c1ccc[n+](CC(=O)OCCC23CC4CC(CC(C4)C2)C3)c1.[Cl-] | 6.55
Cn1c(=NCC(O)COc2ccccc2)sc2ccccc21 (centres unmarked) | -4.86
O=C(c1ccc(-n2cncn2)c([N+](=O)[O-])c1)N1CCN(S(=O)(=O)c2cccc(F)c2)CC1 | -26.3
Cc1ccc(N(C)C(=O)N2CCN(c3ccccn3)CC2)cc1 | 7.8
COc1ccc(NC(=O)CN(C)C(=O)c2ccc(N3CCOCC3)c([N+](=O)[O-])c2)cc1 | -4.07
CN(C)CCC[C@@]1(c2ccc(F)cc2)OCc2cc(C#N)ccc21.O=C(O)C(=O)O | -4.9
CCOc1c(Br)cc(/C=C2/SC(=O)N(CC(=O)N3CCCC3)C2=O)cc1OC | 2.4
CN(CC1CCCO1)S(=O)(=O)c1ccc(C(=O)NCc2ccccc2)cc1 (centres unmarked) | 9.16
CCOc1ccc(N(CC(=O)N2CCN(c3ccc(F)cc3)CC2)S(=O)(=O)c2c(C)noc2C)cc1 | 1.06
COc1ccccc1CC(=O)Nc1ccc(S(=O)(=O)N2CCCCC2)cc1 | 18.4
COc1ccccc1N(CC(O)CN1CCC(C)CC1)S(=O)(=O)c1ccccc1 (centres unmarked) | 4.23
O=c1c2oc3nc4c(cc3c2ncn1CCCc1ccccc1)CCCC4 | -0.796
CC1(C)CC(=O)C2=C(C1)N(c1ccc(F)cc1)C(=O)NC2(C(F)(F)F)C(F)(F)F | -4.97
COc1cccc(-n2c(CCn3nc(C)c([N+](=O)[O-])c3C)n[nH]c2=S)c1 | 14.3

Compound | hERG current change (%, negative = inhibition) at 1uM [%]
Cc1nc2sccn2c(=O)c1S(=O)(=O)Nc1cccc(Cl)c1C | -4.18
CC(=O)c1ccc(N(CC(=O)NC2CCS(=O)(=O)C2)S(=O)(=O)c2ccc(Cl)cc2)cc1 (centres unmarked) | 5.55
COC/C=C/C1=CC2=CC(=O)C(C)(O)C(=O)C2=CO1 (centres unmarked) | 14.6
C=CCNC(=O)/C(C#N)=C/c1c(N2CCCCCC2)nc2ccccn2c1=O | -9.31
Cc1nnsc1C(=O)NC1CCCCC1 | 9.98
COc1ccc(NC(=O)N(Cc2cc3cc(OC)c(OC)cc3[nH]c2=O)CC2CCCO2)cc1 (centres unmarked) | 9.59
CC(=O)Nc1ccc(CN2CCN(Cc3ccc(C)cc3)C(CCO)C2)cc1 (centres unmarked) | 4.84
Cc1ccc(NC2=NCC(=O)N2CCc2ccccc2)cc1C | 11
COc1ccc(NC(=O)c2cccc(S(=O)(=O)N3CCOCC3)c2)cn1 | 1.32
CS(=O)(=O)c1ccc(CNC(=O)[C@]2(C(F)(F)F)C[C@H](CCc3ccccc3)CCCO2)cc1 | 9.75
COc1ccc(C(=O)/C=C/c2cccnc2)c(OC)c1 | 15.6
Cc1c(-n2cccc2C=O)cccc1[N+](=O)[O-] | 13
COc1ccc(Br)cc1CNC(=O)CCC(=O)N1CCSc2ccccc21 | 4.36
CCNC(=S)N(CCc1ccccc1C)Cc1cc2cc(OC)c(OC)cc2[nH]c1=O | 5.94
CCOC(=O)/C=c1\s/c(=C\c2ccc(-c3ccccc3)cc2)c(=O)n1CC(=O)NCc1ccc2c(c1)OCO2 | -8.28
Cc1c(N(C(=O)c2ccccn2)C2(C(=O)NC3CCCC3)CCCCC2)c(=O)n(-c2ccccc2)n1C | 11.3
O=C(Oc1ccc2ccc(=O)oc2c1)c1ccc([N+](=O)[O-])cc1 | 10.8
O=C(COC(=O)c1ccccc1C(=O)N1CCN(c2ccccc2)CC1)Nc1ccc(F)cc1 | -0.239
Cc1ccc(N2CC(C(=O)OCC(=O)c3c(N)n(CC(C)C)c(=O)n(C)c3=O)CC2=O)cc1 (centres unmarked) | 14.5
OCC1OC(Oc2c[nH]c3ccccc23)C(O)C(O)C1O (centres unmarked) | 25.3
Cc1ccn2c(NCc3ccccc3)c(-c3cccs3)nc2c1 | 14.4

Compound | hERG current change (%, negative = inhibition) at 1uM [%]
CCCn1ccc2c(OCC(=O)Nc3ccc(NC(C)=O)cc3)cccc2c1=O | 10.4
CCOC(=O)CNc1nc(Cl)nc(N2CCCCC2)n1 | 15.6
CC1CCN(S(=O)(=O)c2ccc3c(c2)N(CC(=O)NCCCN2CCCCC2)C(=O)CS3)CC1 | 13.2
COc1cccc(CNS(=O)(=O)c2ccc3c(c2)CC(C)N3C(=O)C2CCC2)c1 (centres unmarked) | 17.1
Cc1ccc2cc(CCNC(=O)CC(C)(C)C)c(=O)[nH]c2c1C | 13.7
CC(C)c1nnc(NC(=O)CSc2nnc(NC(=O)c3c(F)cccc3F)s2)s1 | -2.11
O=c1c(Cl)c(N2CCN(S(=O)(=O)c3ccccc3)CC2)cnn1-c1ccccc1 | 5.8
CCNC(=S)N/N=C/c1ccc(OCC(=O)Nc2ccc(C)cc2)cc1 | 4.33
Cc1c(C(=O)Nc2nccs2)sc2nc(-c3cccs3)cc(C(F)(F)F)c12 | 14.8
Cc1ccc2[nH]c3c(c2c1)CN(C(=O)CN1c2ccc(F)cc2CCC1C)CC3 (centres unmarked) | 8.28
C[C@@H]1CCC(=O)N(CC[C@H](Sc2ccc(Br)cc2)c2ccccc2)CC1 | 14.1
COc1cccc(CNC(=O)N2CCN(S(=O)(=O)c3ccc(C)cc3)CC2)c1 | 11.2
NC(=O)C1(N2CCCCC2)CCN(C(=O)CSc2nc3ccccc3s2)CC1 | -10
CCC(C)NC(=O)CN(c1cc(Cl)cc(Cl)c1)S(C)(=O)=O (centres unmarked) | -2.99
CC(=O)c1cccc(NC(=O)N(c2ccccc2)c2ccccc2)c1 | 6.25
COc1cccc(-n2c(SCC(N)=O)nc3c([nH]c4ccccc43)c2=O)c1 | 13
C=CCn1c(C)nc2c(sc3nc4c(cc32)COC(C)(C)C4)c1=O | 14.8
S=C(NCCc1ccccc1)N/N=C/c1c(Cl)cccc1Cl | 10.2
Cc1ccc(OCC(=O)N2CCN(S(=O)(=O)c3ccc(Cl)cc3)CC2)c([N+](=O)[O-])n1 | 0.0789
O=c1oc2ccccc2c(Nc2ccccc2O)c1[N+](=O)[O-] | 6.2
CCN(CC)C(c1ccc(C)cc1)c1nnnn1C1CCCCC1.Cl (centres unmarked) | 13

Compound | hERG current change (%, negative = inhibition) at 1uM [%]
CCCn1cc(NC(=O)C2CC(c3cccc(Br)c3)=NO2)cn1 (centres unmarked) | 0.0183
COc1ccc(NC(=O)Cn2c3ccc(OC)cc3c3nc4n(c(=O)c32)CCS4)cc1 | 19.6
O=[N+]([O-])c1ccc2[nH]c(O)c(N=NC3CS(=O)(=O)CC3O)c2c1 (centres unmarked) | 4.42
Cc1oc(-c2ccc(F)cc2)nc1CN(Cc1ccccn1)CC1CCCO1 (centres unmarked) | -8.34
CC(C)c1ccc(NC(=O)Cn2ncn3c(cc4ccccc43)c2=O)cc1 | 6.77
CC(Oc1ccccc1Cl)C(=O)Nc1ccc(S(=O)(=O)N2CCCC2)cc1 (centres unmarked) | -3.86
COC(=O)C(NNc1ccccc1)(NC(=O)c1ccc(F)cc1)C(F)(F)F (centres unmarked) | 16.1
CCOc1ccc(NC(=O)C2CCCN(S(=O)(=O)c3ccc(-n4cnnn4)cc3)C2)cc1 (centres unmarked) | 9.6
C=CCn1c(N)cc(=O)nc1SCC(=O)NC(C)c1ccccc1 (centres unmarked) | 11.6
COC(=O)CCC(=O)OC1(C)C(=O)C=C2C=C(C3CC3)N(c3ccccc3)C=C2C1=O (centres unmarked) | 3.72
Cc1cc(C)c(S(=O)(=O)c2ccc(C(C)(C)C)cc2)c(Cl)n1 | 18
Cc1c(C#N)c2ccccc2n1CC(=O)NCc1ccccc1 | 9.86
CNC(=O)C(=O)NCC1CCCN1S(=O)(=O)c1cccs1 (centres unmarked) | 3.16
Cc1noc(C)c1C(=O)Nc1nc(-c2ccc(F)c(F)c2)cs1 | 4.6
O=C(O)CCCCCNc1ccc2nsnc2c1[N+](=O)[O-] | 6.57
COc1ccc(CCNC(=O)c2ccc(CS(=O)Cc3ccc(C)cc3)o2)cc1OC (centres unmarked) | 9.19
O=C(C1CCCN(Cc2ccc(Br)cc2)C1)N1CCCCC1.O=C(O)C(=O)O (centres unmarked) | -4.36
O=c1[nH]c(=S)n(-c2ccccc2F)c(O)c1C=NCc1ccco1 | 9.46
Cc1cccn2c(=O)c(/C=N/O)c(N3CCOCC3)nc12 | 14
O=C(O)CSc1nnc(-c2ccncc2)n1-c1ccc(Cl)cc1 | -3
